The record followed here is article PMC8786932, “Bicyclic azetidines target acute and chronic stages of Toxoplasma gondii by inhibiting parasite phenylalanyl t-RNA synthetase” (Nature Communications, 2022).

Several values for one entry are separate records, joined by “and”; a condition that tells them apart may be missing. Equal values may be shown once. Read-outs that look alike come from different tables or passages of the source.

Experiment [1] concerns T. gondii RHΔΔ TgPheRS[L497V]. Briefly: Tachyzoite lytic assay, L497V mutant. Format: cell-based, Toxoplasma gondii. Particulars: for % Parasite Growth: L497V; for EC50: Toxoplasma gondii. How it is done:
In vitro cultures of HFF cells containing mature vacuoles were scraped, passaged through 23 g blunt end needles, and filtered using 3 micron filters. Purified parasites were resuspended in 350 μL of cytomix plus[49] and combined in a BTX 4 mm gap cuvette with 30 μL of PCR amplified templates corresponding to mutations of interest and 10 μg of pSAG1:Cas9-GFP U6:sgTgPheRS^[mut] (in 20 μL, 400 μL total volume, see Supplementary Data 1 for sgRNA sequences) prior to electroporation using a BTX ETM 830 electroporator. Amplified templates for TgPheRS mutations were generated from gBlocks (Integrated DNA Technologies, Coralville, IA, USA) that contain a BclI restriction site that replaces the PAM sequence to protect the repair template from being cut by Cas9. At 16 h post-transfection, transgenic parasites expressing pSAG1:Cas9-GFP were sorted on a Sony SH800 FACS sorter directly into 96-well plates. Single clones containing TgPheRS^[mut] were identified by amplifying a ~500 bp PCR fragment around introduced mutation followed by digestion using BclI (New England Biolabs) BclI sensitive clones were expanded and the locus was Sanger sequenced to verify incorporation of each independent mutation. To generate firefly luciferase (FLuc) expressing strains, freshly harvested parasites were combined with 20 μg of pTUB-FLUC DHFR flox plasmid and 10 μg of pSAG1:Cas9-GFP U6:sgUPRT[50] (in 50 μL cytomix plus) and transformed by electroporation as described above. Parasites were allowed to recover overnight followed by sequential selection with pyrimethamine (1.0 μM) and 5-flurodeoxyuracil (FUDR, 10 μM), as described previously. Stable clones were isolated by limiting dilution and a clone from each genetic background selected based on high luciferase activity (Table 1).
Parasite growth on HFF monolayers was monitored using a 96-well plate-based lytic assay modified from a previously described protocol. […]. Freshly harvested parasites (7.5 × 10^4 /well) were added to each well (in 100uL volume) to reach the final concentration range (10 μM to 0.0005 μM, 200 μL/well, 0.1% DMSO). Plates were incubated for 72 h at 37 °C then culture medium was aspirated and monolayers were fixed with 100% ethanol (ETOH) for 5 min at room temperature (RT). After rinsing with water, wells were stained with 0.1% crystal violet solution for 10 min at RT. Plates were rinsed with water, air dried, and absorption quantified on the Cytation 3 multi-mode imager at 570 nm wavelength. % parasite growth was calculated as 100−[(OD value for infected cultures at each concentration of compound/average OD value for no compound and no parasite infection) × 100]. EC50 values were calculated based on the mean of three biological replicates with each replicate containing two technical replicates.

The target in the next experiment is T1, TgPheRS[L497V] (Toxoplasma gondii, UniProt A0A125YPN6, L497V).
T1 sequence (A0A125YPN6 1-525 L497V): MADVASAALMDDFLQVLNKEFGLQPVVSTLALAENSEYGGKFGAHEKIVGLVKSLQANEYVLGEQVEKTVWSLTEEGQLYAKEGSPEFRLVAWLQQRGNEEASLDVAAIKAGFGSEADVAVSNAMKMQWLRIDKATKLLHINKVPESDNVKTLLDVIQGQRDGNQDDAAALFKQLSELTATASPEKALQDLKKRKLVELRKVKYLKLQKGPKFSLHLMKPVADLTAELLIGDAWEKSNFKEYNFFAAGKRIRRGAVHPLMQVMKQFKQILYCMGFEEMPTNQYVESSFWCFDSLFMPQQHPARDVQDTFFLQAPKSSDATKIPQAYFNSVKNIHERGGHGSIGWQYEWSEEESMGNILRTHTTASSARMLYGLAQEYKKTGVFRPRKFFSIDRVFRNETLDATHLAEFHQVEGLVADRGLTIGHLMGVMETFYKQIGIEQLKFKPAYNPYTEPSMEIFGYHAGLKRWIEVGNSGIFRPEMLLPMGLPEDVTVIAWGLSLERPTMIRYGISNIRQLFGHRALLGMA
T1 sequence (S8EZ50 1-675 partner): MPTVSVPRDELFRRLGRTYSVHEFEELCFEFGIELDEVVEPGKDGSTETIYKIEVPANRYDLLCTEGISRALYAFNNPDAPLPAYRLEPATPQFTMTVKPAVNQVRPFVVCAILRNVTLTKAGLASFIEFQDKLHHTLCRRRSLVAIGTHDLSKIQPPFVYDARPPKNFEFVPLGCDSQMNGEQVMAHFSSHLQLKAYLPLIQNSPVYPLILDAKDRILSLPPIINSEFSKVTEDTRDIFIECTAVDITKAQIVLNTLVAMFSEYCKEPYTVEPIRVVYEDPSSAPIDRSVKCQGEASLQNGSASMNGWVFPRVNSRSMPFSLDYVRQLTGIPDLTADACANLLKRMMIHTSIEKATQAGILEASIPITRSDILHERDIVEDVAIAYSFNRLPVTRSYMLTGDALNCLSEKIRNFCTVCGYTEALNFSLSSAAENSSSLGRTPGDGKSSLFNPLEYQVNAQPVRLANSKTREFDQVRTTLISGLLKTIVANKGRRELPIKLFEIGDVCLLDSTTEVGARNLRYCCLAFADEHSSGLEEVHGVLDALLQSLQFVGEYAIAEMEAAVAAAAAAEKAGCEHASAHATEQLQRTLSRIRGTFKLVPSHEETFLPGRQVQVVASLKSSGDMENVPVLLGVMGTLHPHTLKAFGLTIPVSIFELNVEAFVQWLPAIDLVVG
As to the kind of experiment: biochemical. Particulars: for enzyme assay readout (raw): L497V. How it is done:
See Table S3 for primer information.
For purification of both wild type and mutant TgPheRS, E.coli cultures were grown at 37 °C to an OD600 of 0.6–0.8. recombinant protein expression was induced by the addition of 0.6 mM isopropyl β-d-1-thiogalactopyranoside (IPTG) at 18 °C. After 18–20 h post-induction, the cells were harvested by centrifugation at 5,000 g for 20 min, resuspended in binding buffer (50 mM Tris–HCl (pH 8), 200 mM NaCl, 4 mM β-mercaptoethanol (βMe), 10% (v/v) glycerol, 1 mM phenylmethylsulfonyl fluoride (PMSF) and 0.1 mg/mL lysozyme), and lysed using sonication. The lysed cells were then centrifuged at 20,000 g for 45 min and the cleared soluble protein lysate was loaded on a prepacked Ni-NTA column (GE Healthcare). Proteins which bound the Ni-NTA were washed with 20 column volumes of binding buffer supplemented with 20 mM imidazole to remove impurities. […] . The fractions which contained purified protein were pooled together and concentrated using 30-kDa cut-off centrifugal devices (Millipore) followed by size exclusion chromatography using the GE HiLoad 60/600 Superdex column in a buffer containing 50 mM HEPES (pH 8), 200 mM NaCl, 4 mM β-mercaptoethanol, 1 mM MgCl2. Purity of the eluted fractions was verified on a SDS PAGE gel, fractions pooled together and stored at −80 °C until further use.

`COc1ccc(NC(=O)N2CCCCN3[C@H](CN(C)C)[C@H](c4ccc(C#Cc5ccccc5)cc4)[C@@H]3C2)cc1` [BRD7929]: the “% Parasite Growth” value was 64.58% and 66.7% in experiment [1] (0.00152416 uM); 67.68% and 40.9% in experiment [1] (0.00457247 uM); 64.27% and 35.67% in experiment [1] (0.01371742 uM); 67.06% and 53.63% in experiment [1] (0.04115226 uM); 74.64% and 51.36% in experiment [1] (0.12345679 uM); 55% and 63.39% in experiment [1] (0.37037037 uM). Also, in experiment [1] (10 uM), the “% Parasite Growth” value was 12.93% and 9.87%. For the same compound, the concentration for a half-maximal effect (EC50) was determined as 1420 nM in experiment [1] (read-out: EC50 (growth restriction)) and 1560 nM in experiment [1] (read-out: EC50, L497V). At TgPheRS[L497V], this compound returned an IC50 of 2110 nM. Besides, the “enzyme assay readout (raw)” value at TgPheRS[L497V] (0.000100 μM) was 0.5775 and 0.5838 and 0.5411; at TgPheRS[L497V] (0.001000 μM), 0.5271 and 0.5991 and 0.5505; at TgPheRS[L497V] (0.010000 μM) it was 0.5348 and 0.5970 and 0.52; at TgPheRS[L497V] (0.100000 μM), 0.5428 and 0.5332 and 0.5286; at TgPheRS[L497V] (1.000000 μM), 0.4659 and 0.4572 and 0.4589; on TgPheRS[L497V] (10.000000 μM), 0.4155 and 0.4208 and 0.4102. Also, the “enzyme assay readout (raw)” value on TgPheRS[L497V] (100.000000 μM) was 0.3116 and 0.3383 and 0.3149.

A word on the EC50: it is the concentration that produces a half-maximal response. As a reminder, the IC50 is the point on the concentration scale where inhibition reaches its midpoint.
